# The source gives no read counts; variants with many changes may rest on few reads.
# B1: LINE1-mini (parent)
# chain: GGCAGAGCUCAACACAGCGUGGCAAAGUGGCUGUGGCUAGACUGCC
# Variants of: B1
# Assay: self-cleavage, relative activity (ratio to wild type); higher = more cleavage; in vitro, sequencing; the parent is a self-cleaving ribozyme
row,Variant,self-cleavage
1,GGCAGAGCUCUACACAGUGUUGCAAAAUGGCUGUGGCUAGACUGCC [A11U C18U G21U G27A],0.14
2,GGCAGAGCUCUACACCGCGUGGCAAAGUGGCUGUGGCUACACUGCC [A11U A16C G40C],0.01
3,GGCAGAGCUCUACACAGCAUGGCAAAGUGACUGUGGCUAGACUGCC [A11U G19A G30A],0.05
4,GGCAGAGCUCUAUACAACGUGGCAAAGUGGCUGUGGCUAGACUACC [A11U C13U G17A G44A],0.02
5,GGCAGAGCUCUACACAGCAUGGCAAAGUGGCUGUGGCUACACUGCC [A11U G19A G40C],0.02
6,GGCAGAGCUCGACACAGCGAGGCAAAGAGGCUGUAGCUAGACUGCC [A11G U20A U28A G35A],0.02
7,GGCAGAGCUCUGCACAGCGUGGCUAAGUGGCUGUGGCUAGACUGCC [A11U A12G A24U],0.01
8,GGCAGAGCUCUACACAGAGUGGCAAAGUGGCUGUGGCUUGACUGCC [A11U C18A A39U],0.01
9,GGCAGAGCUCGACACAGCGUGGCAAAGUGGCUGAGGCUAGACUGCU [A11G U34A C46U],0.02
10,GGCAGAGCUCGACACAGCGUGGCAAAUUGGCUGUGGCUAGUCUGCC [A11G G27U A41U],0.02
11,GGCAGAGCUCUACACGGCGUGGCAAAGUAACUAUGGCUAGACUGCC [A11U A16G G29A G30A G33A],0.01
12,GGCAGAGCUCUACACAUCGUGGCAAAGUGGCUGUGUCUAGACUGCU [A11U G17U G36U C46U],0
13,GGCAGAGCUCUACACAGCGUGGAAAAGUGGCUGUGGCUAGACUGUC [A11U C23A C45U],0.08
14,GGCAGAGCUCGACACAGCGUGCCAAAGUGGCUGUGACUAGACUGCC [A11G G22C G36A],0.03
15,GGCAGAGCUCGACACAGCGUGGCAAAGGGUCUGUGGCUAGACUGCC [A11G U28G G30U],0.07
16,GGCAGAGCUCUAUACAGCCUGGCGAAGUGGCUGUGGCGAGACUGCC [A11U C13U G19C A24G U38G],0.01
17,GGCAGAGCUCGACACAGCGUGGCAAAGCGGCUGUGGCUAGACUGCG [A11G U28C C46G],0.01
18,GGCAGAGCUCUACACAGCCUGGCAAAGUGGCUGUGGCUCGACUGCC [A11U G19C A39C],0.02
19,GGCAGAGCUCUUCACGGCGUGGCAAAGUGGCUAUGGCUAGACUGCC [A11U A12U A16G G33A],0.01

row,Variant,self-cleavage
1,GGCAGAGCUCUAAACAGAGUGGCAAAGUGGCUGUGGGUAGACUGCC [A11U C13A C18A C37G],0.01
2,GGCAGAGCUCUACGCAGCGUGGCAAAGUGGCUGUGGCUAGAGUGCC [A11U A14G C42G],0
3,GGCAGAGCUCUACACAGAGUGGCAAGGUGGCUGUGGCUAGACUGCC [A11U C18A A26G],0.12
4,GGCAGAGCUCUACACAGCGUGGUAAAGCGGCUGUGGCUAGAUUGCC [A11U C23U U28C C42U],0.02
5,GGCAGAGCUCUACACAGCGUUGCAAAGUGGCUGUGGCUAGGCUGCC [A11U G21U A41G],0.1
6,GGCAGAGCUCUACCCAGCGUGGCAAAGGGGCUGUGGCUAGACUGAC [A11U A14C U28G C45A],0.01
7,GGCAGAGCUCUACACAGUGUGGGAAAGUUGCUGUGGCUAGACUGCC [A11U C18U C23G G29U],0.07
8,GGCAGAGCUCUAGACAGCUUGGCAAAGUGGCUGUGGCUAGACUGCC [A11U C13G G19U],0.01
9,GGCAGAGCUCUAGACAGCGUGGCAAAGUGGCUAUGGUUUCACUGCU [A11U C13G G33A C37U A39U G40C C46U],0
10,GGCAGAGCUCUAGAUAGCGUGGCAAAGUGGCUGUGGCUAGACUGCG [A11U C13G C15U C46G],0.03
11,GGCAGAGCUCGACACAGCGUGGCAAACGGGCUGGGGCUAGACUGCC [A11G G27C U28G U34G],0.01
12,GGCAGAGCUCUCCACAGCGUGGCAAAGUGGCUGUGGAUAGAGUGCC [A11U A12C C37A C42G],0
13,GGCAGAGCUCGACACAGCGCGGCAAAGUGGCUGUGGCUAGACCGCC [A11G U20C U43C],0.01
14,GGCAGAGCUCUACAAAGUGUGACAAAGUGGCUGUGGCUAGAAUGCC [A11U C15A C18U G22A C42A],0.02
15,GGCAGAGCUCUACACAGCGUUGCAACGUGGCUGUGGCUAGACUGCC [A11U G21U A26C],0.12
16,GGCAGAGCUCUACAAAGCCUGGCAAAGUGGCUGUGGCUAGACUGCC [A11U C15A G19C],0.06
17,GGCAGAGCUCUACUCAGCGUGGCAAAGUGACUGUGGCUACACUGCC [A11U A14U G30A G40C],0.04
18,GGCAGAGCUCUACAUAGCGUGGCAAAGUGGCUGUGGCUAGACUGGC [A11U C15U C45G],0
19,GGCAGAGCUCUACACAGCGUGGCUAAGUGGGUGUGGUUAGACUGCC [A11U A24U C31G C37U],0.01

row,Variant,self-cleavage
1,GGCAGAGCUCUACACAGCGUGGCAGAGUGGCUUUGGCUAUACUGCC [A11U A25G G33U G40U],0.02
2,GGCAGAGCUCUACAAAGCGUGGCAAAGUGGCUGAGGCUAGACUGAC [A11U C15A U34A C45A],0.01
3,GGCAGAGCUCGACACAGCGUGGCAAAGUUGCAGUGGCUAGACUGCC [A11G G29U U32A],0.01
4,GGCAGAGCUCUACAAAGCGUGGCAAAGUGGCUGUGGCUAGACUGCU [A11U C15A C46U],0.04
5,GGCAGAGCUCGACACAGCGUGGCAAAGUGGCUGUUGCUUGUCUGCC [A11G G35U A39U A41U],0.01
6,GGCAGAGCUCGACACAGCGUGGCAAAGUGGCUGUGGCUACACAGCC [A11G G40C U43A],0
7,GGCAGAGCUCUUCACAGCGUGGCAAAGUGGCUGUUGCUAGACUGCC [A11U A12U G35U],0.05
8,GGCAGAGCUCUACACAGCCUGGCAAAGUGGCUGUGGCUAGUUUGCC [A11U G19C A41U C42U],0.03
9,GGCAGAGCUCGACACAGCGUGUCUAAGUGGCUGUGGCUAGAAUGCC [A11G G22U A24U C42A],0.02
10,GGCAGAGCUCUAUACAACGGGGCCAAGUGGCUGUAGCUAGACUGCC [A11U C13U G17A U20G A24C G35A],0.02
11,GGCAGAGCUCUACACAGCGUGGCAUAGUGGUUGUGGCUAGACUGCC [A11U A25U C31U],0.19
12,GGCAGAGCUCUACACAGCAUGGCAAAGAGGCUGUGGCUAGACUGCC [A11U G19A U28A],0.03
13,GGCAGAGCUCUACACAGAGUGGCAAAGUGGCUUUGGAUAGACUGCC [A11U C18A G33U C37A],0.02
14,GGCAGAGCUCUACACACCUAGGCAAAUUGGCUGAGGCUAGACUGCC [A11U G17C G19U U20A G27U U34A],0.01
15,GGCAGAGCUCUACACAGCGUGGGAAAGUAGCUGUGGCGAGACUGCC [A11U C23G G29A U38G],0
16,GGCAGAGCUCUACACAGCCUGGCAAAGUGACUGUGGCUAGACUGCC [A11U G19C G30A],0.13
17,GGCAGAGCUCGACACAGCGUGGCAAAGCGUCUGUGGCUAGACUGCC [A11G U28C G30U],0.01
18,GGCAGAGCUCUACAGUGCGUGGCAAAGUGGCUGUGGCUAGACUGCC [A11U C15G A16U],0.02
